Measured values as given in the supplement of paper PMC11417369.
± gives the standard deviation of the averaged measurements. The list shows a part of the results.

Tested on: PfAP2-EXP AP2 domain (GST-tagged)
Test: gcPBM binding intensity (ln(normalized median fluorescence intensity)); higher = stronger DNA binding
Procedure, shortened: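 Binding of GST-tagged P. falciparum DNA-binding domains, expressed in E. coli and used at about 25 μg on average, was carried out for 1 h in 1× PBS containing 1% milk, 0.2 mg/ml BSA, 0.5% salmon testes DNA and 0.03% Triton X-100. The target was an Agilent 4 × 180k array of primer-extended double-stranded 36-bp intergenic genomic probes plus negative controls, read with Alexa488 anti-GST antibody at 488 nm. Binding intensity is the highest Masliner-normalised natural-log median intensity across replicate spots of either probe orientation.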

Sequence | gcPBM binding intensity (ln)
GAAATATTTTGTTGTGCATGCGACATTAAATAAAAA [TGCATGCA_site331] | 9.45 ± 0.18
ATATAAAGGTTTATTAGTACACATTAGAATACTTTT [XGTACX_site4492] | 8.24 ± 0.26
ACATTTTTTTTTTTTTTTTTTTTCTTACATCATGCA [CACACA_negctrl_site1413] | 8.41 ± 0.38
TTTTACTAGATATATACACACATTATACCTATAGAT [CACACA_site7530] | 8.44 ± 0.45
CATATTAGGACAAAGTGTACATATATATATATATAT [XGTACX_site1172] | 10.3 ± 0.27
AATATACACATTGTGAAATAACAAAAAAGGCAAAAA [CACACA_negctrl_site1014] | 8.97 ± 0.54
CCTATTTATATATACACACACATATATAAATAAATA [CACACA_site2991] | 8.48 ± 0.37
TATATATATGTATGATGTACATATATGCATATATAT [XGTACX_site3399] | 8.54 ± 0.23
TTAATTAAATATTATACACACAAAAAAATAATTTTA [CACACA_site96] | 8.43 ± 0.48
AATAAAAAGATATTCTCCTTGTTCCTTTTTTTTAAA [CACACA_negctrl_site1147] | 8.59 ± 0.5
ATATATATTCATAATACACACATTCTGTAGCATTAT [CACACA_site2067] | 8.53 ± 0.35
ATAGTATCTGGTAGCTGTACGAATGGTAGAGAGTAG [XGTACX_site2548] | 9.27 ± 0.33
ATATTTTTTTTCTTCACACACATGAATTATATATAA [CACACA_site3216] | 8.87 ± 0.43
ATATATATATTAAAGGTGCACAAATAAATATATACA [GTGCAC_site9532] | 9.54 ± 0.26
AATCTATATTGACACACACACAAAAAAAAAAAAAAA [CACACA_site6739] | 8.15 ± 0.6
ATTTTAACCAATTATTGTACTTGGTTATTCTTTTTT [XGTACX_site7453] | 8.61 ± 0.36
CATATTAAAAATACATGTACATATATATTTAATATA [XGTACX_site8580] | 8.38 ± 0.18
AACCTCAAATACACAAGTACGTATAATAAGGAACAA [XGTACX_site4304] | 8.82 ± 0.4
TATAAATATGTGTTTACACACAATAATGAATTAAAA [CACACA_site6555] | 8.25 ± 0.35
GTTTGTAAATATTTTACACACATATTTATTTATATA [CACACA_site6632] | 8.28 ± 0.45
GTTAAAATAATATTATGTACATATATATAAAAATAT [XGTACX_site8512] | 8.65 ± 0.27
ATGGAAAAATGTATATATAAAATAAATATATTATAT [CACACA_negctrl_site1712] | 8.06 ± 0.29

Sequence | gcPBM binding intensity (ln)
AAATAAAAAGTAAAGCGTACAAATGATCAAATAATA [XGTACX_site7898] | 9.04 ± 0.53
TAATCAACAAAATCTACACACTAAAATGAAATATAA [CACACA_site3749] | 8.53 ± 0.46
CCCAGGTGCTCGTAACGTACTTACATCAAATATTAT [XGTACX_site4617] | 8.88 ± 0.27
AGAAGTGTAAAAGTTACACACACAAACTTGTCATTT [CACACA_site4613] | 8.6 ± 0.38
TATAAATAGATATATACACACTTGTGCAGAATATTA [CACACA_site7112] | 8.63 ± 0.25
AGGCGTGAAATATACGTACACACATTATTTATATTT [CACACA_site2558] | 8.58 ± 0.3
TAACATTACTCTTAACTCTTTTGGATACCAACTTAT [XGTACX_negctrl_site82] | 8.51 ± 0.61
ATAATAATATATACATGTACATATATATATATATAT [XGTACX_site3455] | 9.97 ± 0.54
AAATATTTATAAATTGCACACAAATAATAACATTAT [CACACA_site8737] | 8.3 ± 0.31
TTTTTTTTTTTAATATGTACGTAAAATAAGTTTAAA [XGTACX_site6495] | 8.67 ± 0.071
TATTATATTTATTTATGTACACATATACTTAAATAA [XGTACX_site1355] | 8.46 ± 0.45
TGTAATACAGAAAAAAGTACTAAAAAGAAAAGGATT [XGTACX_site3176] | 9.02 ± 0.56
ACACCTATAAATTAAGTGCATTTTTTTTGATGTTAT | 8.65 ± 0.18
ACATTCAATCTACTGTGTACATATTAAACTTTGAAA [XGTACX_site2913] | 8.9 ± 0.31
AAAAAATATATATCACGTGGTAATATATATATATAT [XGTACX_negctrl_site252] | 10 ± 0.28
AATATATAAATAGATACACACATACATACATACATA [CACACA_site4301] | 8.52 ± 0.3
AAATTAAATCCGCACGCACACACACCGATTAATAAA [CACACA_site9321] | 8.75 ± 0.27
TACATCTGTATATAAACACACAACAAAAATGCTTAC [CACACA_site3814] | 8.57 ± 0.46
CTATAATAACATAACACACACATGTATTTATAGGTG [CACACA_site6298] | 8.66 ± 0.37
ATATATATACAACAAGCATGCAGTAATTTTTTTTTT [TGCATGCA_site728] | 9.195 ± 0.064
TCCTTATAAAAATACACACAAACTTTAATTAAAACA [CACACA_site3730] | 8.45 ± 0.58
AAAGATAAAATATTATGTACATATATATATATATAT [XGTACX_site5079] | 10.2 ± 0.28

Sequence | gcPBM binding intensity (ln)
CATTTAACATAAATTAAACACACAATATAATACATT [CACACA_site8333] | 8.53 ± 0.48
TTTTATTTTTATTATACACACGCTTAATAAATGCAT [CACACA_site1751] | 8.63 ± 0.29
GGGAATATAAGTACACGATAATATGTGATAAGGTCT [CACACA_negctrl_site1502] | 9.04 ± 0.63
TTTTTTTGTTGTTGTTGTACGATATTTTCCTTATCA [XGTACX_site2375] | 8.87 ± 0.46
TATAAAAAAAACAAAAAAAAAAAAAAACAAAAAAAA [TGCATGCA_negctrl_site514] | 8.22 ± 0.43
TGTATAAAAGTTTATACACACATTTGATATATTTCA [CACACA_site6606] | 8.24 ± 0.47
GGGGGGATGAGATATTGTACTTTTTAGGAAAGTGTA [XGTACX_site2835] | 10.1 ± 0.19
ATTAAATACATTAACACACACACAAATATATACATA [CACACA_site2881] | 8.73 ± 0.52
AATAATAATACTAATCGTACGCATATTTTTCAAACC [XGTACX_site8055] | 8.65 ± 0.38
CATGTTCATCAGAACGCACACATAATGGTTTACTTA [CACACA_site898] | 8.47 ± 0.3
GATACACCAAATAACTGTACGCACGTGTAATATTAA [XGTACX_site3441] | 8.96 ± 0.45
ACTTATATAAAACATTAACACACAAAGAAAAAAAAT [CACACA_site8529] | 8.67 ± 0.37
AGTAACTAATTAAATGCATGTCGATATATATTATAT [TGCATGCA_site1038] | 8.73 ± 0.24
GTGTATATGTATATATGTACATAAATTTTTTTTTTT [XGTACX_site7083] | 8.24 ± 0.25
AAGAAAAAAAAAATTACACACTGCGCACATACACAA [CACACA_site6721] | 8.725 ± 0.064
TATATATATATATATACACACATATATACCTATATA [CACACA_site6085] | 10 ± 0.48
AAAAAAAAGTTAAGCACACACATGAATAAATAATAC [CACACA_site840] | 8.99 ± 0.45
CCTAGAAAAGTATATACACACGCGCAAAATAAAATT [CACACA_site1413] | 9.41 ± 0.79
TTAACCGGTTTATGGGTGCACATTCTTCTTAAATAA [GTGCAC_site9928] | 8.96 ± 0.19
TATAAATAAAGATATACACACATATAAATATTTTTC [CACACA_site7798] | 8.29 ± 0.43
TTGGTCTTTTAAAAAAGTACAAAAAAAAAAAAAAAA [XGTACX_site1665] | 8.35 ± 0.16
AAAAAAGAACGCATAGTGCATATCTAAAAGATTTTT | 8.27 ± 0.3

Sequence | gcPBM binding intensity (ln)
GATAAATTAAGACACACACACATATATTTATTTATA [CACACA_site7789] | 8.61 ± 0.39
TAGTATTAGATATATACACACATATATACCTATAGA [CACACA_site7083] | 8.3 ± 0.49
ATTTTTTTTTTTATAGTGGATCCACATTTGCCATTT [CACACA_negctrl_site1106] | 8.82 ± 0.57
TTACGATCATCAATATGTACATATATATATATATAT [XGTACX_site4301] | 10.2 ± 0.3
AATATTTATATTTACACACACATAATACATCTATGT [CACACA_site4187] | 8.54 ± 0.33
TATAAAAAAATATTATAATATATATATATATATATA [XGTACX_negctrl_site41] | 10.1 ± 0.26
TTTTAAATATGAACATGTACATGTAAATTTACATGT [XGTACX_site4573] | 8.73 ± 0.31
TTTATAAAAATGAACACACACATATAAATATAAATA [CACACA_site7607] | 8.65 ± 0.44
AAAAATAGAATAAATACACACCCGTGTAACGGATTT [CACACA_site3372] | 8.12 ± 0.47
AATAATATATTTAGGGGTACATAATAATATATTTTA [XGTACX_site8366] | 8.81 ± 0.6
TTATTATTAAAAAAAAGTACAGAATTGAATAATACA [XGTACX_site651] | 8.68 ± 0.38
TTTTAATTTATTAATTGTACATGTATTTTAAGATTA [XGTACX_site8417] | 8.41 ± 0.45
ATTTTTGTGTATTAATGTACTTTATGCATATTTGAC [XGTACX_site3353] | 9.1 ± 0.38
TAAACATTTGGCTGATGTACTTGCTACCTTAAATCA [XGTACX_site5514] | 8.27 ± 0.3
TATTTTTATAAGTAAAAGGAGCACAGTTAAAGGATC [XGTACX_negctrl_site362] | 9.03 ± 0.44
AATATTTTTGTCGTTAGTACATAAAAAATAATAATA [XGTACX_site3074] | 8.35 ± 0.23
AATAATAAAGTGAACACACACATATAATATATATAT [CACACA_site4143] | 9.29 ± 0.19
ATAATTAAAATGCTCACACACATAAAAAAAAATTAA [CACACA_site2149] | 8.4 ± 0.4
CAAACAAACGAACACACACACACACGCAAAAATGAT [CACACA_site7194] | 8.88 ± 0.5
ATGCTTTTATGCACACGTACAAAAATATTATATAAT [XGTACX_site5589] | 8.77 ± 0.042
ATAATTTTATCATATATATATATATATAAATACTTA [CACACA_negctrl_site743] | 8.37 ± 0.28
AAAAATTGAATTTTTTTTTTTTTTTTGAGAAGGAAA [CACACA_negctrl_site1196] | 8.39 ± 0.74
